# According to article PMC4336329 (PLoS ONE, 2015):
# The whole screen tested about 310,000 compounds, of which about 2,200 (0.71%) showed an effect of 50% or more. Effects have a minus sign here. The list shows a part of the results.
# Biological target: human ether-à-go-go-related gene (hERG) potassium channel (human, UniProt Q12809)
# Experiment: primary screen, population patch clamp on CHO cells stably expressing hERG
# Sequence of human ether-à-go-go-related gene (hERG) potassium channel (Q12809 whole entry, looked up): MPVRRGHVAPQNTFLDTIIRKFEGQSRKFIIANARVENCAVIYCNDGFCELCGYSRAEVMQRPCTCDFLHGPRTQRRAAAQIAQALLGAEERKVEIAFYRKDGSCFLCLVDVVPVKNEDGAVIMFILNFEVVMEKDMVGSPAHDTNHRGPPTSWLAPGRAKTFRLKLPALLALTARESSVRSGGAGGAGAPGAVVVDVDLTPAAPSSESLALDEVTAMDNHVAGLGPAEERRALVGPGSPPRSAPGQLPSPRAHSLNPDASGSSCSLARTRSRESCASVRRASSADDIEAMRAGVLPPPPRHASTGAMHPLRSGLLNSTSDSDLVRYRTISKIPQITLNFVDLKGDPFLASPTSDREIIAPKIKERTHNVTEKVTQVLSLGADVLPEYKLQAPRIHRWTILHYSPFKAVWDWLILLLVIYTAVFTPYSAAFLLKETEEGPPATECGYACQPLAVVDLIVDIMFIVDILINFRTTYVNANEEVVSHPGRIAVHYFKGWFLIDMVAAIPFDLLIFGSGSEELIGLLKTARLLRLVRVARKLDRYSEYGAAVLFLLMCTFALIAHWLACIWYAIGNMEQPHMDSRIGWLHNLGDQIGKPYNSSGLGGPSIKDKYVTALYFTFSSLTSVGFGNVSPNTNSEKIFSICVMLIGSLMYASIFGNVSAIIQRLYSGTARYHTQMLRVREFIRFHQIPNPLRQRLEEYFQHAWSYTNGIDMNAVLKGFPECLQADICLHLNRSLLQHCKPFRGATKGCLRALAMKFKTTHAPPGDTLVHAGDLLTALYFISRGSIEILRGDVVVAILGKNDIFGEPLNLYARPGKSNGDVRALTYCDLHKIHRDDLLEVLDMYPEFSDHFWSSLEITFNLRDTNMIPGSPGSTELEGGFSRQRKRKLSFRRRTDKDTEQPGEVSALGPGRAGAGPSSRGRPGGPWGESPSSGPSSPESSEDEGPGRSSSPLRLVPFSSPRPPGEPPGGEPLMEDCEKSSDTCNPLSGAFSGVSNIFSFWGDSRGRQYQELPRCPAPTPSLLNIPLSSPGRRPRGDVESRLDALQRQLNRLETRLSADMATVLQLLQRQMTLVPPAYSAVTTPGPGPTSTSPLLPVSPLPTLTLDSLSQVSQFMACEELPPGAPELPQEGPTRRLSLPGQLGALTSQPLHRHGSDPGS
row,Structure (SMILES),"hERG current change (%, negative = inhibition) at 1uM [%]"
1,O=C(Nc1ccccc1)NC1(C(=O)N2CCN(c3ncccn3)CC2)CCCCC1,22.4
2,Oc1c(Br)c(Br)c(Br)c(Br)c1Br,15.9
3,COC(=O)CN1C(=O)CN=C(c2ccccc2Cl)c2cc(Br)ccc21,6.47
4,COc1ccc(-c2ccc(SCC(=O)NC3CCCC3)nn2)cc1OC,7.65
5,Cc1nc(N2CCC(C)CC2)c2c(C)c(C(=O)Nc3ccccc3C(F)(F)F)sc2n1,-15.5
6,CCOc1ccc(Nc2oc(Cc3ccccc3)nc2C#N)cc1,1.03
7,O=C(c1ccco1)N1CCN(c2ccc([N+](=O)[O-])cc2Cl)CC1,-20.1
8,O=C(/C=C/c1ccc(-c2ccccc2[N+](=O)[O-])o1)c1ccc(F)cc1,2.67
9,Cc1ccc(S(=O)(=O)N2CCCC(C(=O)NCCc3ccccc3)C2)cc1 (stereo not drawn),16.1
10,COc1ccc(-n2c(-c3ccc(Br)cc3)nc(=S)c3c2CCCC3)cc1,2.59
11,O=C(/C=C/c1ccccc1)n1cnnc1SC/C=C/c1ccccc1,2.68
12,Cn1c2ccccc2c(=O)c2c(=O)n(Cc3ccccc3)c(-c3ccc(F)cc3)nc21,12.5
13,CCn1c(C)nc2cc(C(=O)NNC(=O)CCC3CCCCC3)ccc21,3.07
14,COc1cccc(C(C(=O)NC2CCCCC2)N(CCN2CCOCC2)C(=O)C2COc3ccccc3O2)c1 (stereo not drawn),-3.46
15,CCOc1ccc(Nc2cc(C)nc3ccc(C)cc23)cc1,-35.1
16,COc1cccc(C2=NOC(C(=O)Nc3cccnc3Cl)C2)c1 (stereo not drawn),16.2
17,Cn1c2ccccc2c(=O)c2ccc(C#CC3(O)CCCCC3)cc21,8.26
18,Cc1cccc(N2CC(C(=O)Nc3nnc(SCC(=O)NCC4CCCO4)s3)CC2=O)c1 (stereo not drawn),11.9
19,CCCCCC(=O)Nc1ccc(C(=O)COC(=O)CN2C(=O)NC3(CCCC3)C2=O)cc1,11.1
20,Cc1cccc(CS(=O)(=O)Cc2ccc(C(=O)NC3CCCCC3)o2)c1,-0.202
21,Cc1cc(C)nc(NC2=NCC(=O)N2c2cccc(Cl)c2)n1,2.51
22,CCc1ccc(NC(=O)CN2C(=O)COc3ccc(S(=O)(=O)N4CCCC4)cc32)cc1,7.78
23,CC1(C)C(c2cccs2)=[N+]([O-])C2(CCCCC2=O)N1O (stereo not drawn),14.9
24,CCc1ccc(NC(=O)CC2C(=O)N(c3cccc(C)c3)C(=O)N2C2CC2)cc1 (stereo not drawn),6.26
25,CCCCn1c(SCC(=O)NC2CCS(=O)(=O)C2)nc2ccccc2c1=O (stereo not drawn),-7.01
26,FC(F)Sc1nc2ccccc2[nH]1,11.7
27,Cn1c(SCC(=O)Nc2ccc3cn[nH]c3c2)nnc1-c1cnccn1,-6.51

row,Structure (SMILES),"hERG current change (%, negative = inhibition) at 1uM [%]"
1,Cc1ccc2cc(CN(Cc3ccccc3)Cc3nnnn3C3CCCC3)c(=O)[nH]c2c1,-5.33
2,O=C(O)c1cccc(Cn2c(Cl)c(/C=N/NC(=O)c3ccccc3Cl)sc2=O)c1,16.7
3,O=C(CSc1ccc(C(F)(F)F)cc1[N+](=O)[O-])Nc1ccccc1,1.41
4,CCOC(=O)c1c(C)n(CC(O)CN(CC)CC)c2cc(Br)c(OC)cc12.Cl (stereo not drawn),4.3
5,COc1ccc(Nc2nc(NCCCN3CCOCC3)nc(N)c2[N+](=O)[O-])cc1,3.71
6,CC(C)C[C@@H](COc1ccccc1)N1CCN(Cc2ccccc2)CCC1=O,-4.6
7,COc1ccc(N(Cc2ccc(N(C)C)cc2)C(=O)c2ccc(S(C)(=O)=O)cc2)cc1,13.1
8,COc1ccc(C(=O)/C=C/Nc2ccc(NC(C)=O)cc2)cc1OC,-0.271
9,NNC(=O)CP(=O)(c1ccccc1)c1ccccc1,16.8
10,O=C(CONS(=O)(=O)c1ccc(Cl)cc1)NCCNc1ncc(C(F)(F)F)cc1Cl,8.69
11,O=c1c2c3c(sc2nc2sc(CN4CCCCC4)cn12)CCCC3,11
12,COc1ccccc1C(=O)NC(=O)COC(=O)Cn1cnc2c1c(=O)n(C)c(=O)n2C,3.4
13,O=C(NCc1ccccn1)C1CC(c2ccc(F)cc2)=NO1 (stereo not drawn),12.6
14,Cc1ccc(Nc2nc(N)c([N+](=O)[O-])c(NCc3ccco3)n2)cc1,3.04
15,O=C(CSc1nc(=O)n2ccccc2n1)N1CCN(c2ccccc2)CC1,6.22
16,Cc1cc([N+](=O)[O-])nn1CC(=O)Nc1cnc2ccccc2c1,-15.8
17,Cc1ccc(C)c(N2CCN(C(=O)Cn3c(=O)oc4cc(S(=O)(=O)N5CCCC5)ccc43)CC2)c1,7.82
18,CN(Cc1ccccc1)C(=O)COC(=O)CCNC(=O)c1ccccc1Cl,1.43
19,Cc1cc(C)cc(C(=O)NCC(=O)OCC(=O)Nc2ccc(C)cc2Br)c1,12.2
20,CC1C(=O)Nc2ccc(S(=O)(=O)N3CCN(c4cccc(Cl)c4)CC3)cc2NC1=O (stereo not drawn),2.25
21,CCCN(CCC)CC(O)CN(c1ccccc1)S(=O)(=O)c1ccc(C)cc1 (stereo not drawn),-88.6
22,CC(=O)Nc1ccc(S(=O)(=O)NNC(=O)COc2ccc(C)cc2)cc1,3.63
23,O=C(Nc1ccc2nc(-c3ccccc3)[nH]c2c1)c1ccco1,-9.37
24,Cc1ccc2[nH]c(=O)c(CN(Cc3cccnc3)Cc3nnnn3CCN3CCOCC3)cc2c1,2.03
25,COc1ccc(CNC(=O)c2noc3c2CCCCC3)cc1,0.386
26,COc1ccccc1OCCCCN1CCN(c2ccccc2OC)CC1.O=C(O)C(=O)O,-13.1
27,CCCc1cc(=O)[nH]c(SCC(=O)c2ccc3c(c2)OCCO3)n1,8.79
